{"source": "paper PMC12136788", "binders": {"B1": {"name": "chr5:75360489:75360590:+|3pUTR|ENSG00000113161|msi1|total|mutant (ssRNA)", "RNA": "GGGAGUUCUACAGUCCGACGAUCGCUCUUUCAGAGAGGUCUCAGGUUCUUUCCAUGCAGACUCCUCAGAUCUGAACACAGUUCCGUGCUUUACAUGCUGUGCUCUUUGAAGAGAUUUCAACAAGAAUAUUGUAUGUUAAAGCACAACAGAGGAUUGAGCAUCA"}, "B2": {"name": "chr11:61866962:61867357:+|3pUTR|ENSG00000134824|msi1|total|mutant (ssRNA)", "RNA": "GGGAGUUCUACAGUCCGACGAUCAGAUUCAGGGGAAGGGCAGGCACCAACAACUCAGAAUGGGGGCUUUCGGGGAGGGCGCCCCGUCCCCCCAGCUCUAAGCAGCCAGGAGGGACCUGCAUCUAAGCAUCUGGGUUGCCAUGGCAACAGAGGAUUGAGCAUCA"}, "B3": {"name": "chr15:74179522:74179623:-|3pUTR|ENSG00000137868|msi1|total|mutant (ssRNA)", "RNA": "GGGAGUUCUACAGUCCGACGAUCUCAUGACUCAGACCAGGUCCCACACUGAGCUGCCCACACUCGAGAGCCAGAUAUUUUUGCCGUUUUUAUGCCUUUGGCUAUUAUGAAAGAGGUCCGUGUGUUCCCUGCAAUAAACUUGUUCAACAGAGGAUUGAGCAUCA"}, "B4": {"name": "ENSG00000070961:be:win_5801|3pUTR|ENSG00000070961|bound_else_gene|NA|bound_elsewhere_windowed (ssRNA)", "RNA": "GGGAGUUCUACAGUCCGACGAUCGAAAAGGGAAAUGUUUUCAGUUUUCUUUUUUAUUUUGGUUAUGCUUAAAUAUGAAUGUAAUUACCAAAAGAUUUAGAAGUGCAUGUGCUUUGGAGGAUUUGUAUUGAGCUUUUACAGUAUCAACAGAGGAUUGAGCAUCA"}, "B5": {"name": "chr9:14719723:14720089:-|three_prime_utr|ENSG00000147869|control|control|control (ssRNA)", "RNA": "GGGAGUUCUACAGUCCGACGAUCUUCAGUCUGAAAAUGUUAAGUGGGUACAUAACAUUUUCAGGGAAAGGUGACUUGAAACGUAGUUUUAAAUUAGAACGAUAGAGGAAAUGAUAUUAGUCUAGUUAUUGGUACACGUUUGAGCAACAGAGGAUUGAGCAUCA"}, "B6": {"name": "chr12:76025442:76025543:-|3pUTR|ENSG00000139289|msi1|total|mutant (ssRNA)", "RNA": "GGGAGUUCUACAGUCCGACGAUCAUACACCAUCACAUUCAUGAAUUUUUCCGCAUGGUCAGAACUUGUGUAAAUAUGUCUCUCCGAUGAUUUUGGGGAGAUGUGAUUUAUUUUUCAUAUUUUCAAAAUGCAUUUCAUUUCAAACAACAGAGGAUUGAGCAUCA"}, "B7": {"name": "ENSG00000198589:be:win_101|CDS|ENSG00000198589|bound_else_gene|NA|bound_elsewhere_windowed (ssRNA)", "RNA": "GGGAGUUCUACAGUCCGACGAUCCUCUGAAACCAGGGCUCCCCAUCAGGGGCAUCAGAAUGAAAUUUGCCGUGUUGACCGGUUUGGUUGAAGUUGGAGAAGUAUCCAAUAGGGAUAUUGUAGAAACUGUCUUUAACCUGUUGGCAACAGAGGAUUGAGCAUCA"}, "B8": {"name": "chr17:29498396:29498497:+|CDS|ENSG00000160551|msi1|FALSE|bound_elsewhere (ssRNA)", "RNA": "GGGAGUUCUACAGUCCGACGAUCCAGCAGCCAAAGCAGUAGUGUUAACAGUCUUCCAGAUGUCUCAGAUGACAAGAGUGAGCUAGACAUGAUGGAGGGAGACCACACAGUGAUGUCUAACAGUUCUGUUAUCCAUUUAAAACCCAACAGAGGAUUGAGCAUCA"}, "B9": {"name": "chr17:49055506:49055607:+|3pUTR|ENSG00000159217|unk|total|mutant (ssRNA)", "RNA": "GGGAGUUCUACAGUCCGACGAUCCACUUCCCGGCUGUGGGGGCUGGGGAGCCACUUGUAACAUUUCUGUGCAGAUUUUAUGUCCGCCACUGCUAUGUAAAAGCACGUUCAAAAUGAAUUUCAGCAGAUUAUGUGUUACCAUAACAACAGAGGAUUGAGCAUCA"}, "B10": {"name": "ENSG00000136451:be:win_3901|3pUTR|ENSG00000136451|bound_else_gene|NA|bound_elsewhere_windowed (ssRNA)", "RNA": "GGGAGUUCUACAGUCCGACGAUCAUAAACAGGAGUGAGACUUCAUUGUAUGACUUCAGUUAAAAUACUAUUUUGUAUGCAUUCUUUAUUCACUUAAGAAGCUUGUCUGCAAUAAUAAAGCCACGUCAUGUCUUCUUUUGGGAGCAACAGAGGAUUGAGCAUCA"}, "B11": {"name": "chr3:185511523:185511697:-|CDS|ENSG00000163898|control|control|control (ssRNA)", "RNA": "GGGAGUUCUACAGUCCGACGAUCUAAUCAAGAUCUGGAUAAAGUGGCUGCAAUUUCCUUGAUGUUCUCUACAGGAUCUCUAAUAGGCCCAAGGUACAAGCUCAGGAUUCUCCGAAUGAAGUUAAGGUCCCUUGCCCAUCCGGACAACAGAGGAUUGAGCAUCA"}, "B12": {"name": "chr8:108778973:108784180:-|three_prime_utr|ENSG00000164841|control|control|control (ssRNA)", "RNA": "GGGAGUUCUACAGUCCGACGAUCAAGUUUAUUUCACAAACCAACAGCCAGUAAGUGUUUUUGUUCUCUAUGUGUCUUCUAUUUAGAAGAAAAGCCAUGUAAGAUGUAUAAGAAACCACAACCAGCCACACCUAUCCUUCUGAACAACAGAGGAUUGAGCAUCA"}, "B13": {"name": "chr2:160273923:160274028:-|3pUTR|ENSG00000153250|unk|total|mutant (ssRNA)", "RNA": "GGGAGUUCUACAGUCCGACGAUCGGGCUUUUAAAAGGCCGUCAAUAAAAGUUGCUGAAAUUUUGGCUUUUUUAAAUAUGCCGCCGGUGUUUUUAAUGAUUUUUCACAUAAUGUGUAAGGCCGUGAAAUGCAAGAAGGGAAAAACAACAGAGGAUUGAGCAUCA"}, "B14": {"name": "chr3:43366700:43366801:-|3pUTR|ENSG00000160746|unk|total|mutant (ssRNA)", "RNA": "GGGAGUUCUACAGUCCGACGAUCACGGUGGCAGGGGGGGUACCCGGGGCAGCAUCGUGGCUCCUGAACCCAGACCCAAUGCUCCGCCAAACGAAGUGGCUCCCAUGUGGCAAGCACCCUUCUCAGUUUCGCAGUGGCUUGGCUCAACAGAGGAUUGAGCAUCA"}, "B15": {"name": "chr7:44121865:44121972:-|CDS|ENSG00000106628|unk|FALSE|unique (ssRNA)", "RNA": "GGGAGUUCUACAGUCCGACGAUCGUGCCAGUGGCAACCUACACCAACUCCUCACAACCCUUCCGGCUAGGAGAGCGCAGCUUUAGCCGGCAGUAUGCCCACAUUUAUGCCACCCGCCUCAUCCAAAUGAGACCCUUCCUGGAGCAACAGAGGAUUGAGCAUCA"}, "B16": {"name": "chr1:43997547:43997739:-|CDS|ENSG00000196517|control|control|control (ssRNA)", "RNA": "GGGAGUUCUACAGUCCGACGAUCAAGCAGAGACUGGGGCCCUGCCCUCCUGGAGCACCGGACAGGGCGCUACGCCCCCACCAUAGCCCCCUCUCCUGAGGACGGCUUCGAGGUCCAGCCACUGCACCCGGACAAGGCGCAGAUCAACAGAGGAUUGAGCAUCA"}, "B17": {"name": "chr12:108522223:108522324:-|3pUTR|ENSG00000075856|msi1|total|mutant (ssRNA)", "RNA": "GGGAGUUCUACAGUCCGACGAUCUCAGUCGGGUUUUCUAUAUUUUUUUAACUUAACAUUUUUUAAUAUAACCGAUUAAAAAGCCGACAGAACAGUAAAAUAAACUCCUGUGUGCCUACCAUUCAGCUUCCAGCAUUCCUCAACCAACAGAGGAUUGAGCAUCA"}, "B18": {"name": "ENSG00000120265:stop:overlap|stop_codon|ENSG00000120265|stop_codon|NA|stop_codon (ssRNA)", "RNA": "GGGAGUUCUACAGUCCGACGAUCUAGCUGACUCUACAGGAGAAGAAAUUUUUAGCUGCCGUACUUUAGAGGGACUGUUUUACUAGAUGAGCACGUUACCCUUUGGCAUGAUUAUAUUUUCUAAUUUUAACUGCUGGGUGACAGCAACAGAGGAUUGAGCAUCA"}, "B19": {"name": "chr14:44928120:44928223:-|3pUTR|ENSG00000179454|unk|FALSE|unique (ssRNA)", "RNA": "GGGAGUUCUACAGUCCGACGAUCUAGUACAGCAGGCCUCCCAGUGCUGAUGUAAAUAUUUGAGCAGUGUUUAGUACCAUUCUUAGUGCAUAUUAAUUUUUUUAUAUAUCCUUAUAAUUUUAGUUUUUUAAGAUCUUUGCUUUUCAACAGAGGAUUGAGCAUCA"}, "B20": {"name": "chr10:11763304:11763405:+|CDS|ENSG00000134463|unk|FALSE|unique (ssRNA)", "RNA": "GGGAGUUCUACAGUCCGACGAUCGGGCUGCUUAGCAAGGUGGUGCCAGAGGCGGAGCUGCAGGAGGAGACCAUGCGGAUCGCUAGGAAGAUCGCAUCGCUGAGCCGUCCGGUGGUGUCCCUGGGCAAAGCCACCUUCUACAAGCAACAGAGGAUUGAGCAUCA"}, "B21": {"name": "ENSG00000198589:be:win_4601|CDS|ENSG00000198589|bound_else_gene|NA|bound_elsewhere_windowed (ssRNA)", "RNA": "GGGAGUUCUACAGUCCGACGAUCUGGCAGUAGUAUACUUUAUCUCUGUUCUUAUGGUCUCCAAGUACAGAGACAUUUUGGAACCCCAAAAUGAAAGGCAUAGCCAGUCAUGUACAGAAACUGGCAGUGAAAAUGAGAAUGUAUCAACAGAGGAUUGAGCAUCA"}, "B22": {"name": "chr10:67912576:67912687:+|CDS|ENSG00000096717|unk|total|mutant (ssRNA)", "RNA": "GGGAGUUCUACAGUCCGACGAUCUUUUGAUGCCGAGCUUCUUGGAGACUGUGAUGUCAUAAUUAAUGAAUUGUGUCACCGGUCCGGUGGUGAAUAUGCCAAACUUUGCUGUAACCCUGUAAAGCUUUCAGAAAUUACUGAAAACAACAGAGGAUUGAGCAUCA"}}, "note": "The other results are listed elsewhere or left out.", "data": [{"target": "MSI1 full-length (mouse, UniProt Q61474 1-362)", "sequence (Q61474 whole entry)": "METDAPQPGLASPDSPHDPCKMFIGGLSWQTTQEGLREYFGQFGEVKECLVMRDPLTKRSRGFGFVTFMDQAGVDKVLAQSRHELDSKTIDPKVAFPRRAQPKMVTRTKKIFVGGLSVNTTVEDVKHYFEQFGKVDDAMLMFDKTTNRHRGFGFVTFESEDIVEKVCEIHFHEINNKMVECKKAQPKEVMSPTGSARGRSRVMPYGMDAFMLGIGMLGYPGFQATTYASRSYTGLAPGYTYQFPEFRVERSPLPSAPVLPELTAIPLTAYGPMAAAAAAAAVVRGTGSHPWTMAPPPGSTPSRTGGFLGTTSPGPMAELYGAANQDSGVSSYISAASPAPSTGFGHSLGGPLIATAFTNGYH", "assay": "nsRBNS (natural sequence RNA bind-n-seq); RBNS binding buffer (assumed for nsRBNS): 25 mM Tris pH 7.5, 150 mM KCl, 3 mM MgCl2, 0.01% Triton X-100, 500 ug/ml BSA, 20 U/ml SUPERase-In, 4 C; UNK is unkempt and MSI1 is Musashi-1; names of the RNAs are library labels; protein concentration not given here; high values mean tight binding", "units": {"binding signal": "enrichment R"}, "values": [{"binder": "B1", "binding signal": 0.132}, {"binder": "B2", "binding signal": 0.416}, {"binder": "B3", "binding signal": 0.389}, {"binder": "B4", "binding signal": 1.05}, {"binder": "B5", "binding signal": 2.87}, {"binder": "B6", "binding signal": 0.318}, {"binder": "B7", "binding signal": 3.23}, {"binder": "B8", "binding signal": 0.671}, {"binder": "B9", "binding signal": 0.336}, {"binder": "B10", "binding signal": 0.334}, {"binder": "B11", "binding signal": 0.225}, {"binder": "B12", "binding signal": 1.27}, {"binder": "B13", "binding signal": 0.329}, {"binder": "B14", "binding signal": 0.466}, {"binder": "B15", "binding signal": 0.629}, {"binder": "B16", "binding signal": 0.351}, {"binder": "B17", "binding signal": 0.95}, {"binder": "B18", "binding signal": 1.09}, {"binder": "B19", "binding signal": 35.6}, {"binder": "B20", "binding signal": 0.504}, {"binder": "B21", "binding signal": 0.339}, {"binder": "B22", "binding signal": 0.172}]}]}
